Data as given in paper PMC6188873.
Results are given in words; binding and its absence hold for the method and conditions named. In cells and extracts the contact can be indirect. Some results given as binding are weak or reduced against the parent protein; the word gives no strength. One block for each binder: values may come before it.

Chains of the proteins cited; added tags and fusions are not shown.
UniProt Q86WV6: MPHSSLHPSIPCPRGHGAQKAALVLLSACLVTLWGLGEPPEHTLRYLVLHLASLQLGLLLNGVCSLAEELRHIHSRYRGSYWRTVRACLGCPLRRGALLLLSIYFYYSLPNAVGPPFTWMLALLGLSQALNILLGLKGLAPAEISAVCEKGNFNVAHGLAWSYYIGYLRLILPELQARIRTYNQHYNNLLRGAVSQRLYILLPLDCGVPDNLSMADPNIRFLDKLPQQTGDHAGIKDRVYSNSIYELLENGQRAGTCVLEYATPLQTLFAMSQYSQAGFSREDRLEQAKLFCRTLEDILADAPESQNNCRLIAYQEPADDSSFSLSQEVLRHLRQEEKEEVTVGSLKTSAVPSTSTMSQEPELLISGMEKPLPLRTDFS
UniProt Q8N884: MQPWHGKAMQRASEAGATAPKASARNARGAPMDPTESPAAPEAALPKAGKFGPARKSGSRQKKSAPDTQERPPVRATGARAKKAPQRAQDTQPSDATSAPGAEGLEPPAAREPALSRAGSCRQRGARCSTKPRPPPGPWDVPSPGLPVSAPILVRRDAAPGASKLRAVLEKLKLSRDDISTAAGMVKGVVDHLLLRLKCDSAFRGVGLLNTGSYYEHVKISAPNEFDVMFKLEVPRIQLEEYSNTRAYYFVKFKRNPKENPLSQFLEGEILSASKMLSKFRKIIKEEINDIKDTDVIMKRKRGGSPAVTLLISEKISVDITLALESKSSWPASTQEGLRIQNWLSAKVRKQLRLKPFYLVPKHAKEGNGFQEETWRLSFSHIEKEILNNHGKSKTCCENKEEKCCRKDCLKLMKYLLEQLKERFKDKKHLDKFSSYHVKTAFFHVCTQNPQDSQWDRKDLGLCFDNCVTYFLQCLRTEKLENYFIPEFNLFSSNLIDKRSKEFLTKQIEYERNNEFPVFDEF
UniProt Q8NEB9: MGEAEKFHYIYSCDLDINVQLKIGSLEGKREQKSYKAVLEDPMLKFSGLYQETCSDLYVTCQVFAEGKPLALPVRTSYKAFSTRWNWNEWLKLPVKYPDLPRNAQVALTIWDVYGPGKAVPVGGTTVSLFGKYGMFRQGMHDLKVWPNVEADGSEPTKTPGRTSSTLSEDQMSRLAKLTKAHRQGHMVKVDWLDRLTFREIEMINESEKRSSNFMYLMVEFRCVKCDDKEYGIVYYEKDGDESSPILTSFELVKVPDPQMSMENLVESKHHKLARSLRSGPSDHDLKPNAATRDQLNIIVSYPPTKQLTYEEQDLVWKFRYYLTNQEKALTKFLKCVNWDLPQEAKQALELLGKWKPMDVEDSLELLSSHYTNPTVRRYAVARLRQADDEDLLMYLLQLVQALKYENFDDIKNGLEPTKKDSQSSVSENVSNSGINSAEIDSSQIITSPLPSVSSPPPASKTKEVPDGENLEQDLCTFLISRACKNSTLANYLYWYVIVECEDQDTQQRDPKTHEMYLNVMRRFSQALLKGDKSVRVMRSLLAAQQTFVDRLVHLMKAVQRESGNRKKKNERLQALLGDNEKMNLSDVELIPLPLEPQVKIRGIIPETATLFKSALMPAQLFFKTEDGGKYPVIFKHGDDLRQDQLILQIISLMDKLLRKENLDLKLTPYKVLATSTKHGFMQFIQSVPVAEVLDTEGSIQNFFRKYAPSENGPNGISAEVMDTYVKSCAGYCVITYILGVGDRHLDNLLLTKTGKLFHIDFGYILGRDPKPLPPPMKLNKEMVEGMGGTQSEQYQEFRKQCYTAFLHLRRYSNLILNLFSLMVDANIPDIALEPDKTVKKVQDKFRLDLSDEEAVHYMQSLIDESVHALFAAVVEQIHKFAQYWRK
UniProt Q96KP1: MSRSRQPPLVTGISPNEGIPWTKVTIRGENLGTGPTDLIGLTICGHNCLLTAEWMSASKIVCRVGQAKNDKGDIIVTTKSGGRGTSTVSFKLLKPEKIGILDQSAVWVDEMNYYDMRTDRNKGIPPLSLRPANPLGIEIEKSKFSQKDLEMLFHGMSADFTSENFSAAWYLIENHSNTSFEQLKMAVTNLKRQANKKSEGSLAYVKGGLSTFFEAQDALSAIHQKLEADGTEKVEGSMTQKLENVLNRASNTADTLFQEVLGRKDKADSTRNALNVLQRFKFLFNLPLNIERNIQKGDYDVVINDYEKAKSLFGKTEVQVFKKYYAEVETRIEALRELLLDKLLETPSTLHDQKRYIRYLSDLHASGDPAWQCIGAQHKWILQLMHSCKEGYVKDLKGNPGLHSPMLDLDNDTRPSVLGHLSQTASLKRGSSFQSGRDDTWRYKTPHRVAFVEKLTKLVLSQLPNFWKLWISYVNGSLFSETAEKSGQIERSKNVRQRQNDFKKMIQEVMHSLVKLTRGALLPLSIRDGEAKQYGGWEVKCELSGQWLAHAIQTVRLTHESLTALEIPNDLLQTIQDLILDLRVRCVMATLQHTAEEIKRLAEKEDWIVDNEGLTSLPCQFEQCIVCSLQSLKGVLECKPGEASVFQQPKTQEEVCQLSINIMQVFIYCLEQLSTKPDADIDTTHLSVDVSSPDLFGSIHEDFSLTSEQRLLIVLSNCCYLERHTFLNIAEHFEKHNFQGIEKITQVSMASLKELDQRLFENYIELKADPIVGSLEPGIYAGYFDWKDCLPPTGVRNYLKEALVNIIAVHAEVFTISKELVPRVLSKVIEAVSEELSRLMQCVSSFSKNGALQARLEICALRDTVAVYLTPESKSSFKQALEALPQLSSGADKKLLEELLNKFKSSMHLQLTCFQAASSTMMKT

Tests used:
[1] = biological target: T1, MITA (endogenous, mouse lung fibroblasts) (mouse (endogenous in MLFs)) (UniProt Q3TBT3); assay: co-IP; endogenous co-immunoprecipitation from MLFs (3x10^7), un-infected or early after HSV-1 infection; NP40 lysis buffer; Protein-G sepharose; washes with 500 mM NaCl; immunoblot
T1 sequence: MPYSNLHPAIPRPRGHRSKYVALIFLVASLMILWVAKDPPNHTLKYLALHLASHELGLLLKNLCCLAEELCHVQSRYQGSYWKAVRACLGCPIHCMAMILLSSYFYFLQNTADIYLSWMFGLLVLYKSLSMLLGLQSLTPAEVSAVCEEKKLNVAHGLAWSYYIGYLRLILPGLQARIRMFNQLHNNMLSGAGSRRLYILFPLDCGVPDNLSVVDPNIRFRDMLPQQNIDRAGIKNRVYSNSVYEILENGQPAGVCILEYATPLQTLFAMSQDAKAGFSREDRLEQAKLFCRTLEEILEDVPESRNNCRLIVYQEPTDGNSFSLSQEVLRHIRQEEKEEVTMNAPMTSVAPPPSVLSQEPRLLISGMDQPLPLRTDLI

[2] = biological target: MITA (also called STING, MPYS, ERIS, or TMEM173) (UniProt Q86WV6); assay: co-IP; HEK293 cells (2x10^6) transfected with the indicated plasmids (5 μg each) for 24 h (Fig 6E also with knockdown of SNX8); NP40 lysis buffer (20 mM Tris-HCl, 150 mM NaCl, 1 mM EDTA, 1% Nonidet P-40); indicated antibody or control IgG with Protein-G sepharose, at least 2 hr; washed three times with lysis buffer containing 500 mM NaCl; immunoblot
[3] = biological target: T2, IRF3 (UniProt Q14653); assay: as above
T2 sequence: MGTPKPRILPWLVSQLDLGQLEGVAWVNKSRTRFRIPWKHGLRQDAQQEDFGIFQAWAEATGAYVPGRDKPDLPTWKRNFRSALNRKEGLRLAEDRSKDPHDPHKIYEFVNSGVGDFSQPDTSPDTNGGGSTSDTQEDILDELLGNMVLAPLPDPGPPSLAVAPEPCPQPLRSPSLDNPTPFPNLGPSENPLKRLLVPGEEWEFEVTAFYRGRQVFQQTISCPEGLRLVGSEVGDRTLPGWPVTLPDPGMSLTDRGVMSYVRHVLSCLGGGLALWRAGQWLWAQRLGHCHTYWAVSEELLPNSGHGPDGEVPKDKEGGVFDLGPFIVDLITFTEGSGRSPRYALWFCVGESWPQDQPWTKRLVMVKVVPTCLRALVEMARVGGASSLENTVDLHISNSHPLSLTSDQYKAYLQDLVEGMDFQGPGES

[4] = biological target: T3, TRAPβ (UniProt P43308); assay: as above
T3 sequence: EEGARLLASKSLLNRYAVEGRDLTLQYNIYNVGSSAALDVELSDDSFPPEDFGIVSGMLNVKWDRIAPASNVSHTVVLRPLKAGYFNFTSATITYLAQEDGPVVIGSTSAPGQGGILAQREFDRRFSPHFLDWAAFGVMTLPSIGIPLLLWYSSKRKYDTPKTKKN

[5] = biological target: T4, TBK1 (UniProt Q9UHD2); assay: as above
T4 sequence: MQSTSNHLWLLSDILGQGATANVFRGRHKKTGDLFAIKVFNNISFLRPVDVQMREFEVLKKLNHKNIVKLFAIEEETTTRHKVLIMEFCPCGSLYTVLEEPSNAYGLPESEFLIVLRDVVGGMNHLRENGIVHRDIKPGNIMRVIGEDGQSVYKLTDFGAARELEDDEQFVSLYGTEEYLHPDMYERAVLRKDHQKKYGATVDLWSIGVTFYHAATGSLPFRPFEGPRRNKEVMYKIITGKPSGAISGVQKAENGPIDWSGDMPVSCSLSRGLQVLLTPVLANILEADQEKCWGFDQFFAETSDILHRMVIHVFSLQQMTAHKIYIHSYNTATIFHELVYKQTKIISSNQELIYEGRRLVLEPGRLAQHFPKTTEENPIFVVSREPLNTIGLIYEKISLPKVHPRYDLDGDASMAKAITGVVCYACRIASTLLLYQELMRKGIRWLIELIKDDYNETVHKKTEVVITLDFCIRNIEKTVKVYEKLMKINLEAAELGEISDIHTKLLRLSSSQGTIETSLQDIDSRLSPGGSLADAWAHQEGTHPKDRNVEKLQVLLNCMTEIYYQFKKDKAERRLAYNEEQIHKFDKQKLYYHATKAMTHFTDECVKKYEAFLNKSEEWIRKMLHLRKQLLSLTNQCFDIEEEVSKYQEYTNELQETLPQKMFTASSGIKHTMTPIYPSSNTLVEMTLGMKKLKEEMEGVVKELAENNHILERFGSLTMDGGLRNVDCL

[6] = biological target: T5, iRhom2 (UniProt Q6PJF5); assay: as above
T5 sequence: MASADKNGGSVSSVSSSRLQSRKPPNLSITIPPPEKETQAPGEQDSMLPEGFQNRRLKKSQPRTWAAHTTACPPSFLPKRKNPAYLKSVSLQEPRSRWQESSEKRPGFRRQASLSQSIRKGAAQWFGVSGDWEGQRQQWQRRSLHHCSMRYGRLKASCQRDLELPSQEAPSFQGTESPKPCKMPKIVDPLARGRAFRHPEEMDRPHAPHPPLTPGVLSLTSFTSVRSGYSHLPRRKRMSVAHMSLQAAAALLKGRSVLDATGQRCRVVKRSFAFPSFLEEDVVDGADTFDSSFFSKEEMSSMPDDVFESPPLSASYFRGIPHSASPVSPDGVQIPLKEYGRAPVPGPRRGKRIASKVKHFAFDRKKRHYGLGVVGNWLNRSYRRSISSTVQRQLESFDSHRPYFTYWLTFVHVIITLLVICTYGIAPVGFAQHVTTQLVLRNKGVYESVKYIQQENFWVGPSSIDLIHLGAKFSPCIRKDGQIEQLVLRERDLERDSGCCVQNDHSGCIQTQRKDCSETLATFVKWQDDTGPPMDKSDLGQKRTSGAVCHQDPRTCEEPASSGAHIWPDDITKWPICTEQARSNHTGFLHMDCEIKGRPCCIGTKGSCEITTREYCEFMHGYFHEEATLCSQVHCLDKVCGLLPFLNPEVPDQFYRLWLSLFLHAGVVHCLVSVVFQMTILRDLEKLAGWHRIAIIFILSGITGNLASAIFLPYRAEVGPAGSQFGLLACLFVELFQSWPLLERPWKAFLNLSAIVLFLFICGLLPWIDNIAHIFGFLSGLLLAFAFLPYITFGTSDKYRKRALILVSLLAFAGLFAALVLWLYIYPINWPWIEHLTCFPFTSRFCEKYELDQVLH

[7] = biological target: cyclic GMP-AMP (cGAMP) synthase (cGAS) (UniProt Q8N884); assay: as above
[8] = biological target: class III phosphatylinositol 3-kinase (PI3K) VPS34 (UniProt Q8NEB9); assay: as above
[9] = biological target: Sec5 (UniProt Q96KP1); assay: as above

binding [1]: binds
B1: SNX8 (endogenous, mouse lung fibroblasts) (protein, UniProt Q8CFD4 1-459)
chain: MTGRAMDPLPSPAVAAAAEAEADEEADPPATGPRTSQVTEWRALDPGRMQMPQGNPLLLSYTLQELLAKDTVQVELIPEKKGLFLKHVEYEVSSQRFKSSVYRRYNDFVVFHEVLLHKFPYRMVPALPPKRVLGADREFIEGRRRALKRFINLVARHPPFSEDVLLKLFLSFSGSDVQHKLKEAAQCVGDEFMNCKLAARAKDFLPADIQTQFAMSRELIRNVYNSFYKLRDRAERIASRAIDNAADLLIFGKELSALGSDTTPLPSWAALHLSTWGSLKQALKGLSVEFALLADRAAQQGKKEENDVVEKLNLFLDLLQSYKDLCERHEKGVLHKHQRALHKYGLMKRQMMSAAHGREPESVEQLESRIVEQENVIQTMELRNYFSLYCLHQETQLVHVYLPLTSHILGAFVNSQIQGHKEMSKVWNDLKPKLSCLFAGPHSVLTPPRSPQEDGVCPH

binding [2]: no binding
B2: SNX8(178–465) (domain or fragment, UniProt Q9Y5X2 178-465)
chain: SGSDVQNKLKESAQCVGDEFLNCKLATRAKDFLPADIQAQFAISRELIRNIYNSFHKLRDRAERIASRAIDNAADLLIFGKELSAIGSDTTPLPSWAALNSSTWGSLKQALKGLSVEFALLADKAAQQGKQEENDVVEKLNLFLDLLQSYKDLCERHEKGVLHKHQRALHKYSLMKRQMMSATAQNREPESVEQLESRIVEQENAIQTMELRNYFSLYCLHQETQLIHVYLPLTSHILRAFVNSQIQGHKEMSKVWNDLRPKLSCLFAGPHSTLTPPCSPPEDGLCPH

binding [3]: no binding | binding [4]: no binding | binding [5]: no binding | binding [6]: binds | binding [7]: no binding | binding [8]: binds | binding [9]: binds | binding [2]: binds
B3: Sorting nexin 8 (SNX8) (protein, UniProt Q9Y5X2 1-465)
chain: MTGRAMDPLPAAAVGAAAEAEADEEADPPASDLPTPQAIEPQAIVQQVPAPSRMQMPQGNPLLLSHTLQELLARDTVQVELIPEKKGLFLKHVEYEVSSQRFKSSVYRRYNDFVVFQEMLLHKFPYRMVPALPPKRMLGADREFIEARRRALKRFVNLVARHPLFSEDVVLKLFLSFSGSDVQNKLKESAQCVGDEFLNCKLATRAKDFLPADIQAQFAISRELIRNIYNSFHKLRDRAERIASRAIDNAADLLIFGKELSAIGSDTTPLPSWAALNSSTWGSLKQALKGLSVEFALLADKAAQQGKQEENDVVEKLNLFLDLLQSYKDLCERHEKGVLHKHQRALHKYSLMKRQMMSATAQNREPESVEQLESRIVEQENAIQTMELRNYFSLYCLHQETQLIHVYLPLTSHILRAFVNSQIQGHKEMSKVWNDLRPKLSCLFAGPHSTLTPPCSPPEDGLCPH
